Laboratory results published in PubChem BioAssay AID1030 (National Center for Advancing Translational Sciences (NCATS), 2008).
Among all 220,000 compounds or so, about 16,000 (7.3%) were called active. The inconclusive results got no clear call from the source; some entries with a clear call stand among them for comparison. Calls follow the shape of the dose curve; as a rule, active = well fitted inhibition curve with a large enough effect (not every such curve was filed as active); inconclusive = small, poorly fitted or top-dose-only effect, or another doubt; inactive = no such curve, though single readings can be large or run the other way. Potencies of inconclusive entries are left out as doubtful fits.

target: Aldehyde dehydrogenase 1A1 (Homo sapiens) (UniProt P00352); experiment: qHTS Assay for Inhibitors of Aldehyde Dehydrogenase 1 (ALDH1A1); conditions: Purified ALDH1A1, NADH fluorescence, propionaldehyde substrate; series mostly up to 75.3 µM
Potency is read from the fitted curve at half-maximal effect; tags tell the direction and shape of the fitted curve.

Sequence of UniProt P00352 (P00352 whole entry, looked up): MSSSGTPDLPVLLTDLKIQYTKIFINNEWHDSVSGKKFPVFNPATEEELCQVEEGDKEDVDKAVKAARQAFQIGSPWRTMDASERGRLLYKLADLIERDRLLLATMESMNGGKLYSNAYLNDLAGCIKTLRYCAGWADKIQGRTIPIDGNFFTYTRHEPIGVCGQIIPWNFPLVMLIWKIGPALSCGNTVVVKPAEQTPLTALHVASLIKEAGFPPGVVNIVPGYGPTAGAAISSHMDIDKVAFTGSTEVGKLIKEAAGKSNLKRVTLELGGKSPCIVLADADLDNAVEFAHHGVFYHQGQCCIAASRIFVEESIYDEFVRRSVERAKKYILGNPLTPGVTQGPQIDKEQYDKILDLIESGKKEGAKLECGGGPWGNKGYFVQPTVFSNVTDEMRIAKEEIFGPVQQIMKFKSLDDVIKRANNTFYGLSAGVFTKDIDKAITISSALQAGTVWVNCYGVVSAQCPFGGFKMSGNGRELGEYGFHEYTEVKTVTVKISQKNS

Structure (SMILES)	Potency
CCOC(=O)c1[nH]nc2c1C(=O)N(Cc1ccccc1)C2=O	inconclusive [inhibitor, single point]
CCOC(=O)c1sc(/N=C/c2c(O)ccc3ccccc23)cc1C	inconclusive [inhibitor, partial curve]
Oc1oc(-c2ccco2)nc1C=Nc1ccccc1	active: 22.4 µM
Cc1cc(C)cc(NC(=S)NCc2cccs2)c1	inactive
CCN(CC(=O)Nc1ccccc1-c1ccccc1)Cc1nc2ccccc2c(=O)[nH]1	inconclusive [inhibitor, single point]
O=S(=O)(NC1CC1)c1ccc(S(=O)(=O)N2CCCc3ccccc32)cc1	inconclusive [inhibitor, single point]
C=Cn1ccnc1P(=S)(c1ccc2c(c1)c1ccccc1n2CC)c1nccn1C=C	inconclusive [inhibitor, single point]
COC(=O)c1ccc(-c2ccco2)n1Cc1cccc(C)c1	inconclusive [inhibitor, single point]
CCn1c(SCC(=O)N/N=C/c2ccc(O)c(OC)c2)nc2ccccc21	inconclusive [inhibitor, single point]
Cc1ccc(CNC(=O)c2cn(C)c(=O)c3c2c2ccccc2n3C)o1	inconclusive [inhibitor, single point]
COc1cc(/C=C/C(=O)c2ccccc2O)cc(OC)c1OC	inconclusive [inhibitor, partial curve]
O=c1c2ccc([N+](=O)[O-])cc2ncn1Cc1ccccc1C(F)(F)F	inconclusive [inhibitor, single point]
NC(N)=Nc1nc(CSCC/C(N)=N\S(N)(=O)=O)cs1	inactive
Cc1cc(C(=O)C(=O)O)c(C)n1-c1ccc(Cl)c(Cl)c1	inactive
CC(C)(C)c1ccc(N2C(=O)CSC2c2cccnc2)cc1 (centres undefined)	inconclusive [inhibitor, single point]
Cc1ccc(S(=O)(=O)N2CCCCC2)cc1NC(=O)COC(=O)c1ccc(O)cc1	inconclusive [inhibitor, single point]
CN(C)c1cc(-c2cccc(NS(C)(=O)=O)c2)ncn1	inconclusive [inhibitor, partial curve]
Cc1c(CCO)c(=O)[nH]n1S(=O)(=O)c1ccccc1	inconclusive [inhibitor, single point]
O=C(c1cccc(Cl)c1)N1CCN(Cc2ccccc2F)CC1	inconclusive [inhibitor, partial curve]
